This is one part of the list. The energies were worked out here from pooled read counts, against the library average; single values are noisy.
biological target: T1, Pho4 (S. cerevisiae) (UniProt P07270); test: relative binding free energy (BET-seq); higher = weaker binding; conditions: reference: library average
T1 sequence: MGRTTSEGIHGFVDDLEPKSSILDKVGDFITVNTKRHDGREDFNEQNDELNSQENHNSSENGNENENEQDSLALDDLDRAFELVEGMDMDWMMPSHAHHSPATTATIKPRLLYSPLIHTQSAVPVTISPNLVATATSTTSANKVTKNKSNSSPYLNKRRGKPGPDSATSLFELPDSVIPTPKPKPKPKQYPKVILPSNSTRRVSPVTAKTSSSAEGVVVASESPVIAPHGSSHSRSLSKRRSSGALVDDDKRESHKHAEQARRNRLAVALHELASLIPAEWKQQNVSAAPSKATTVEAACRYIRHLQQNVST

Which “relative binding free energy” value does the source give for CTTTTCACGTGTGTAC here?
The value was 0.34 kcal/mol.

With TATATCACGTGATGGT as the sequence, how does the “relative binding free energy” value read?
Its value is 0.14 kcal/mol.

Which “relative binding free energy” value does the source give for ATGTACACGTGAGGGA here?
Its value is 0.19 kcal/mol.

With GTGTTCACGTGGGGGA as the sequence, how does the “relative binding free energy” value read?
Its value is 0.27 kcal/mol.

For CCTGGCACGTGGGGTG, which “relative binding free energy” value is on record?
The value was -0.41 kcal/mol.

For TGGGACACGTGTTAGA, which “relative binding free energy” value is on record?
Its value is 0.12 kcal/mol.

For TGTTGCACGTGATTCA, which “relative binding free energy” value is on record?
Its value is 0.16 kcal/mol.

How did the “relative binding free energy” value turn out when TAGTACACGTGATTGT was run?
The value was 0.04 kcal/mol.

For GCGTTCACGTGGTCTT, which “relative binding free energy” value is on record?
The value was 0.25 kcal/mol.

TGATTCACGTGTTAGA was tested. Which “relative binding free energy” value did it give?
The value was 0.2 kcal/mol.

Which “relative binding free energy” value does the source give for TCTAGCACGTGTGTAT here?
The value was -0.11 kcal/mol.

Which “relative binding free energy” value does the source give for TGAGACACGTGGGTAT here?
Its value is -0.1 kcal/mol.

Which “relative binding free energy” value does the source give for GTTCTCACGTGTTTAG here?
Its value is 0.3 kcal/mol.

GCTGTCACGTGTCTTG was tested. Which “relative binding free energy” value did it give?
The value was 0.25 kcal/mol.

For GGACTCACGTGGAGTG, which “relative binding free energy” value is on record?
The value was 0.12 kcal/mol.

For AGGAACACGTGCGGTG, which “relative binding free energy” value is on record?
The value was 0.01 kcal/mol.

For GGTGACACGTGAGATA, which “relative binding free energy” value is on record?
The value was 0.33 kcal/mol.

For GGAGCCACGTGTGGGG, which “relative binding free energy” value is on record?
The value was 0.02 kcal/mol.

Which “relative binding free energy” value does the source give for TTTGTCACGTGTACAC here?
The value was 0.28 kcal/mol.

AGATACACGTGGTCTG was tested. Which “relative binding free energy” value did it give?
Its value is -0.07 kcal/mol.

With AGTGCCACGTGTAATT as the sequence, how does the “relative binding free energy” value read?
The value was 0.18 kcal/mol.

With GGTACCACGTGGGATT as the sequence, how does the “relative binding free energy” value read?
Its value is -0.04 kcal/mol.

With TTAGTCACGTGCGTGG as the sequence, how does the “relative binding free energy” value read?
The value was 0.02 kcal/mol.

With TCAGACACGTGAGGGA as the sequence, how does the “relative binding free energy” value read?
Its value is 0.34 kcal/mol.

How did the “relative binding free energy” value turn out when GGGGGCACGTGGATGG was run?
The value was -0.03 kcal/mol.

Which “relative binding free energy” value does the source give for ATGTTCACGTGTACGA here?
Its value is 0.15 kcal/mol.

With TGTCACACGTGTTTTG as the sequence, how does the “relative binding free energy” value read?
The value was 0.05 kcal/mol.

How did the “relative binding free energy” value turn out when GGATTCACGTGGATTT was run?
Its value is 0.42 kcal/mol.

How did the “relative binding free energy” value turn out when TGTGGCACGTGATGTT was run?
Its value is 0.13 kcal/mol.

With AGCGGCACGTGGTCGG as the sequence, how does the “relative binding free energy” value read?
The value was -0.25 kcal/mol.

With ATATTCACGTGACGGT as the sequence, how does the “relative binding free energy” value read?
Its value is 0.42 kcal/mol.

Which “relative binding free energy” value does the source give for TGCAGCACGTGGGGTA here?
The value was -0.12 kcal/mol.

How did the “relative binding free energy” value turn out when GTGTTCACGTGCCTGG was run?
Its value is 0.11 kcal/mol.

How did the “relative binding free energy” value turn out when GTCGGCACGTGGGCAG was run?
The value was -0.31 kcal/mol.

Which “relative binding free energy” value does the source give for GTTGTCACGTGATAAT here?
The value was 0.29 kcal/mol.

Which “relative binding free energy” value does the source give for TGGTGCACGTGTGCCG here?
Its value is 0.06 kcal/mol.

For TATCGCACGTGGTGGT, which “relative binding free energy” value is on record?
Its value is -0.07 kcal/mol.

TGTGGCACGTGGTTTT was tested. Which “relative binding free energy” value did it give?
The value was -0.08 kcal/mol.

With TTAGACACGTGAATAT as the sequence, how does the “relative binding free energy” value read?
The value was 0.25 kcal/mol.

For TTTGCCACGTGTGCGA, which “relative binding free energy” value is on record?
The value was -0.04 kcal/mol.

ATTGGCACGTGCAATT was tested. Which “relative binding free energy” value did it give?
Its value is -0.07 kcal/mol.

How did the “relative binding free energy” value turn out when AGAAGCACGTGGGATG was run?
Its value is -0.18 kcal/mol.

Which “relative binding free energy” value does the source give for AATTACACGTGTAGTT here?
Its value is 0.07 kcal/mol.

ATAAGCACGTGTGAAG was tested. Which “relative binding free energy” value did it give?
The value was -0.04 kcal/mol.

For AGGCTCACGTGTTGAT, which “relative binding free energy” value is on record?
The value was 0.2 kcal/mol.

Which “relative binding free energy” value does the source give for AATAACACGTGGGTGC here?
Its value is -0.14 kcal/mol.

With GTTGGCACGTGATGGT as the sequence, how does the “relative binding free energy” value read?
Its value is 0.1 kcal/mol.

Which “relative binding free energy” value does the source give for TTGTTCACGTGGATCA here?
The value was 0.17 kcal/mol.

For AGGACCACGTGTGGTG, which “relative binding free energy” value is on record?
Its value is 0.02 kcal/mol.

Which “relative binding free energy” value does the source give for GGTCTCACGTGGCTTG here?
The value was 0.05 kcal/mol.

With ATGGTCACGTGTACGT as the sequence, how does the “relative binding free energy” value read?
The value was 0.24 kcal/mol.

How did the “relative binding free energy” value turn out when GAGAGCACGTGGGTGT was run?
Its value is -0.17 kcal/mol.

With GTAGCCACGTGTGTGT as the sequence, how does the “relative binding free energy” value read?
The value was 0.03 kcal/mol.

Which “relative binding free energy” value does the source give for CTACTCACGTGTTTGT here?
The value was 0.21 kcal/mol.

For CTGGTCACGTGATTAT, which “relative binding free energy” value is on record?
Its value is 0.19 kcal/mol.

For CTTAGCACGTGGGGGG, which “relative binding free energy” value is on record?
Its value is -0.18 kcal/mol.

For TTTGTCACGTGAGTCA, which “relative binding free energy” value is on record?
Its value is 0.38 kcal/mol.

AGTTACACGTGTTGGG was tested. Which “relative binding free energy” value did it give?
Its value is 0.14 kcal/mol.

Which “relative binding free energy” value does the source give for TGGGCCACGTGAGGTG here?
The value was 0.16 kcal/mol.

For AATATCACGTGTGGGC, which “relative binding free energy” value is on record?
The value was 0.18 kcal/mol.

For GAGGCCACGTGTGGAG, which “relative binding free energy” value is on record?
Its value is 0.1 kcal/mol.

For AGGAGCACGTGTGTTA, which “relative binding free energy” value is on record?
Its value is 0.08 kcal/mol.

Which “relative binding free energy” value does the source give for ATACACACGTGTTGGG here?
Its value is -0.09 kcal/mol.

— the BET-seq Pho4 binding data (Le et al. 2018)
